In PubChem BioAssay (NCATS):
The inconclusive results got no clear call from the source; some entries with a clear call stand among them for comparison. Where the call is inconclusive, the potency comes from a doubtful curve fit. Active and inactive are the calls of the source. Calls follow the shape of the dose curve; as a rule, active = well fitted inhibition curve with a large enough effect; inconclusive = small, poorly fitted or top-dose-only effect; inactive = flat fitted curve, though single readings scatter.

The compounds below were run against Tyrosine-protein phosphatase non-receptor type substrate 1 (Homo sapiens) + Leukocyte surface antigen CD47 (Homo sapiens) (UniProt P78324+Q08722) (assay: CD47-SIRPalpha protein protein interaction - Alpha assay qHTS validation (AID 1347059;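 also: bead proximity luminescence from CD47 binding SIRPalpha after compound preincubation with SIRPalpha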)). Details: AlphaScreen CD47-His/biotin-SIRPalpha binding, LOPAC; series mostly up to 38.3 µM.
Excerpt: SIRPalpha is a myeloid cell expressed immunomodulatory receptor that binds the tumor expressed immune checkpoint CD47. Therapeutic disruption of this interaction leads to immune-mediated tumor rejection. This assay was used to quantitate CD47-SIRPalpha binding biochemically and evaluate chemical libraries for novel CD47-SIRPalpha inhibitors. To recapitulate the biological interaction of CD47 and SIRPalpha, we designed expression constructs to produce their recombinant, soluble, extracellular interaction domains. CD47 was produced with an N-terminal 6His tag. SIRPalpha was produced with an N-terminal Avi-Tag for site-specific biotin incorporation. The CD47-SIRPalpha interaction was measured by AlphaScreen using affinity tag linked reagents (Ni-NTA acceptor bead and streptavidin donor bead). SIRPalpha without biotin incorporation was used as a positive control inhibitor.
PROTOCOL TABLE (as described by Miller, T. et al. 2019)
SEQUENCE No. (e.g., 1, 2, 3, etc.); […] (e.g., Cells, Incubation, Reagent, etc.); VALUE and DESCRIPTION.
1a. Reagent. 2 uL SIRPalpha-biotin (25 nM) added to respective wells in Assay buffer; white/solid bottom high base, med bind 1536-well plates (Greiner 789075)
1b. Reagent. 2 uL Assay buffer negative control for background fluorescence
2. Reagent. 23 nL library compounds (7-pt, 1:4 intraplate titration series) or DMSO control transferred by Pin Tool
3. Centrifuge. Centrifuge plate for 30 s at 1000 RPM
4. Incubation.#Incubate reagents at room temperature for 30 min, protected from light
5. Reagent. 2 uL CD47-His (12.5 nM) in Assay buffer
6. Centrifuge. Centrifuge plate for 30 s at 1000 RPM
7. Incubation.#Incubate reagents at room temperature for 30 min, protected from light
8. Reagent. 1 uL Ni-NTA beads (10 ug/mL) added to respective wells
9. Reagent. 1 uL SAV beads (10 ug/mL) added to respective wells
10. Centrifuge. Centrifuge plate for 30 s at 1000 RPM
11. Incubation. Incubate reagents at room temperature for 30 min, protected from light
12. Detector. Measure AlphaScree n on EnVision (1536A1 aperture)
Where possible, perform Donor bead dilution and addition away from direct sunlight or with bright overhead lights turned off (<100 lux, similar to hallway lighting). Lighting should still be bright enough to allow accurate pipetting.
1. Assay buffer composition.#Phosphate buffered saline (PBS; 10 mM Phosphate, 137 mM NaCl, and 2.7 mM KCl; pH 7.4), 0.05% IGEPAL CA-630
2. 23nL of […] library compounds (7 plates) or DMSO vehicle control transferred to 9 Greiner white/solid bottom high base, TC plates in 7 interplate 1:5 titrations (see Yasgar, A. et al. 2008) with Pintool. Two of the 9 plates are DMSO-only in compound field at beginning and end of compound library-treated plates.
12. Aperture = 1536 plate HTS AlphaScreen; plate-detector distance = 0; Total measurement time = 240; Ex. time = 80 ms (33%); Afterglow CT1 corr. factor = 0; Glow CT2 corr. factor = 0; Bleach CT3 corr. factor = 0; Ref. signal= 417733; Ref. AD gain = 2
Potency is read from the fitted curve at half-maximal effect; tags tell the direction and shape of the fitted curve.

Chain of UniProt P78324 (P78324 whole entry, looked up, the tested form may be a part): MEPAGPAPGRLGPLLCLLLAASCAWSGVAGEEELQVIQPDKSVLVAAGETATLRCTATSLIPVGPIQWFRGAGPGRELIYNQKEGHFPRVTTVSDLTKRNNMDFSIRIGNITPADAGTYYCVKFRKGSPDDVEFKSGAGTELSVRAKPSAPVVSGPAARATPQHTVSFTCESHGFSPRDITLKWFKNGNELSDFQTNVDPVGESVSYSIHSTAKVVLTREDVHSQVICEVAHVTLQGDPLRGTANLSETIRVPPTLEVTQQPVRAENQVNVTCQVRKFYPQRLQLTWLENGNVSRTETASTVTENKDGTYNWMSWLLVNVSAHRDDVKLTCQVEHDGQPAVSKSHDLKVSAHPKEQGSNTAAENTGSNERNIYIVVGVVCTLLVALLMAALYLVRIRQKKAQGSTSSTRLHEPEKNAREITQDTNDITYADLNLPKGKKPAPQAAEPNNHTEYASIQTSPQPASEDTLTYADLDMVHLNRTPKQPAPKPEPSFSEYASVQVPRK
Chain of UniProt P78324 (Q08722 whole entry, looked up, the tested form may be a part): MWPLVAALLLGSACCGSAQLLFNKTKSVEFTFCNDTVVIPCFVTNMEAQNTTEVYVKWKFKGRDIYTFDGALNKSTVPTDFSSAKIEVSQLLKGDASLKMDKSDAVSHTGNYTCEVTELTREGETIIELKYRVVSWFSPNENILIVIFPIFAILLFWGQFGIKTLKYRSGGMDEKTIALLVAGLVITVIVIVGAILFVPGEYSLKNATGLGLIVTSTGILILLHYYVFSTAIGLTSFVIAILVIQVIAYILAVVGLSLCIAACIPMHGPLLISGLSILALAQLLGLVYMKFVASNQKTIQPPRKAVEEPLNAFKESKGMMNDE

| Structure (SMILES) | Potency |
| --- | --- |
| O=C1c2ccccc2C(=O)c2c(NCCc3ccc(O)cc3)ccc(NCCc3ccc(O)cc3)c21 | active: 1.85 µM |
| NC[C@@H]1O[C@H](C23CC4CC(CC(C4)C2)C3)Cc2c1ccc(O)c2O | inconclusive: 16.5 µM [inhibitor, partial curve] |
| O=Nc1c(-c2c(O)[nH]c3cc(Br)ccc23)[nH]c2ccccc12 | active: 1.31 µM |
| c1cnc2c(c1)ccc1cccnc12 | active: 0.185 µM |
| N#C/C(=C\c1ccc(O)c(O)c1)C(=O)c1ccc(O)c(O)c1 | inconclusive: 7.36 µM [inhibitor, partial curve] |
| Cc1ccc(O)c(N=Nc2ccccc2)n1 | inconclusive: 13.1 µM [inhibitor, single point] |
| C[C@H](Cc1ccc(O)c(O)c1)[C@@H](C)Cc1ccc(O)c(O)c1 | inactive |
| CN(C)c1ccc(/C=C2\C(=O)Nc3ccccc32)cc1 | inconclusive: 14.7 µM [inhibitor, partial curve] |
| NC(CO)C(=O)NNCc1ccc(O)c(O)c1O (centres undefined) | active: 13.1 µM |
| COCCOC(=O)C1=C(C)NC(C)=C(C(=O)OC/C=C/c2ccccc2)C1c1cccc([N+](=O)[O-])c1 (centres undefined) | inconclusive: 16.5 µM [inhibitor, single point] |
| O=C1c2c(O)ccc(O)c2C(=O)c2c(NCCNCCO)ccc(NCCNCCO)c21 | active: 0.826 µM |
| N[C@H]1CONC1=O | inactive |
| N#C/C(=C\c1ccc(O)c(O)c1)C(=O)Nc1ccccc1 | inactive |
| COC(=O)C1=C(C)NC(C)=C(C(=O)OC)C1c1ccccc1[N+](=O)[O-] | inconclusive: 11.7 µM [inhibitor, partial curve] |
| Oc1cc(O)cc(/C=C/c2ccc(O)c(O)c2)c1 | inconclusive: 16.5 µM [inhibitor, single point] |
| O=c1c(O)c(-c2ccc(O)c(O)c2)oc2cc(O)cc(O)c12 | inconclusive: 11.7 µM [inhibitor, single point] |
| O=Nc1c(-c2c(O)[nH]c3ccccc23)[nH]c2ccccc12 | inconclusive: 1.85 µM [inhibitor, full curve] |
| CSc1ccc2c(c1)C(N1CCN(C)CC1)Cc1ccccc1S2 (centres undefined) | inconclusive: 16.5 µM [inhibitor, single point] |
| Nc1c(S(=O)(=O)O)cc(Nc2ccc(Nc3nc(Cl)nc(Nc4ccc(S(=O)(=O)O)cc4)n3)c(S(=O)(=O)O)c2)c2c1C(=O)c1ccccc1C2=O | active: 11.7 µM |
